This is a noisy data set.
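Also: [psi-pin-] Saccharomyces cerevisiae expressing SupN fusions, induced by 100 µM Cu2SO4, selected 7 d at 30 °C without adenine and uracil, scored by deep sequencing of output versus input.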

The nature of the first data set: amyloid nucleation score relative to library mode (yeast Sup35 reporter selection) (log enrichment difference); higher = more amyloid nucleation; sequences are the first 22 residues of the Bri2 peptide extended by up to 12 random residues. Conditions: random library (experiment): 1;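 active = nucleation score significantly above 0 at FDR 0.05; inactive = not significantly above 0 or absent from output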.
Take EASNCFAIRHFENKFAVETLICNCVDKLGRDSAR: the amyloid nucleation score stood at 7.67.

EASNCFAIRHFENKFAVETLICNDGDNGHFVRLL: the amyloid nucleation score worked out at 0.262.

As for EASNCFAIRHFENKFAVETLICNDGTYCSIRQAQ, the amyloid nucleation score is 0.703.

As for EASNCFAIRHFENKFAVETLICNDLVLPTAIVTP, the amyloid nucleation score entry is “inactive”.

As to EASNCFAIRHFENKFAVETLICNDSGCLQGRATW, the amyloid nucleation score result is “inactive”.

As for EASNCFAIRHFENKFAVETLICNDSRTMRQRGAE, the amyloid nucleation score entry was “inactive”.

Regarding EASNCFAIRHFENKFAVETLICNDVSVVVGRWRW, the amyloid nucleation score came out at 6.46.

Consider EASNCFAIRHFENKFAVETLICNDVWHVQVLWGH, for which the amyloid nucleation score is 7.01.

Sequence EASNCFAIRHFENKFAVETLICNEMWNWSMLWMC displayed an amyloid nucleation score of -0.00976.

In the case of EASNCFAIRHFENKFAVETLICNERCRVRIICST, the amyloid nucleation score entry is “inactive”.

EASNCFAIRHFENKFAVETLICNFSQSQEENFWR: the amyloid nucleation score came to 8.02.

Consider EASNCFAIRHFENKFAVETLICNFSRWFRSRTYR, for which the amyloid nucleation score result is “inactive”.

Sequence EASNCFAIRHFENKFAVETLICNFTIFNLLYKAC returned an amyloid nucleation score of 5.58.

Consider EASNCFAIRHFENKFAVETLICNFVTSGHPRSHV, for which the amyloid nucleation score worked out at 7.9.

Take EASNCFAIRHFENKFAVETLICNG: the amyloid nucleation score result is “inactive”.

On to EASNCFAIRHFENKFAVETLICNGDCCKGRYLRR, for which the amyloid nucleation score was determined as 4.62.

Turning to EASNCFAIRHFENKFAVETLICNGEVPLDKVCVL, the amyloid nucleation score result was “inactive”.

Consider EASNCFAIRHFENKFAVETLICNGGASGRDFVDV, for which the amyloid nucleation score result is “inactive”.

Turning to EASNCFAIRHFENKFAVETLICNGHTQRYRRCAG, the amyloid nucleation score result is “inactive”.

EASNCFAIRHFENKFAVETLICNGKRS showed an amyloid nucleation score of -0.0755.

Sequence EASNCFAIRHFENKFAVETLICNGLCNRDTDP gave an amyloid nucleation score of 6.85.

EASNCFAIRHFENKFAVETLICNGLYYSSSRSNG: the amyloid nucleation score entry was “inactive”.

Consider EASNCFAIRHFENKFAVETLICNGRLSYVCDLIV, for which the amyloid nucleation score turned out to be 1.26.

The same data set, now with this note: random library (experiment): 2.
In turn, EASNCFAIRHFENKFAVETLICNCTLCMELSTIS yielded an amyloid nucleation score of 7.84.

Turning to EASNCFAIRHFENKFAVETLICNCTLRWLSGSCA, the amyloid nucleation score result is “inactive”.

As for EASNCFAIRHFENKFAVETLICNCVVYADTWCWR, the amyloid nucleation score came out at 7.2.

For EASNCFAIRHFENKFAVETLICND, the amyloid nucleation score was 1.27.

As to EASNCFAIRHFENKFAVETLICNDGLWILVGRFV, the amyloid nucleation score result was “inactive”.

EASNCFAIRHFENKFAVETLICNDKFTEYINC registered an amyloid nucleation score of 1.37.

Turning to EASNCFAIRHFENKFAVETLICNDLHYGYPLWTE, the amyloid nucleation score worked out at 7.27.

EASNCFAIRHFENKFAVETLICNDLNTSILSNQM displayed an amyloid nucleation score of 4.45.

Regarding EASNCFAIRHFENKFAVETLICNDLPG, the amyloid nucleation score result was “inactive”.

EASNCFAIRHFENKFAVETLICNDVSLLY registered an amyloid nucleation score of 4.5.

On to EASNCFAIRHFENKFAVETLICNECMFSVSVGDG, for which the amyloid nucleation score result was “inactive”.

Consider EASNCFAIRHFENKFAVETLICNENSVSGDITSM, for which the amyloid nucleation score result was “inactive”.

Consider EASNCFAIRHFENKFAVETLICNESYYVLKGCKA, for which the amyloid nucleation score entry was “inactive”.

Sequence EASNCFAIRHFENKFAVETLICNEWDLTEQNPET gave an amyloid nucleation score of -0.148.

In the case of EASNCFAIRHFENKFAVETLICNEYDRSLVYHKI, the amyloid nucleation score result is “inactive”.

Sequence EASNCFAIRHFENKFAVETLICNFG returned an amyloid nucleation score of 5.5.

The sequence EASNCFAIRHFENKFAVETLICNFI displayed an amyloid nucleation score of 7.28.

EASNCFAIRHFENKFAVETLICNFLQHLIGPSNQ yielded an amyloid nucleation score of 6.07.

Consider EASNCFAIRHFENKFAVETLICNFRTE, for which the amyloid nucleation score was determined as 7.53.

Regarding EASNCFAIRHFENKFAVETLICNFTYNGVRSFVR, the amyloid nucleation score was 5.

EASNCFAIRHFENKFAVETLICNFVFGTLLASSY showed an amyloid nucleation score of 5.1.

In turn, EASNCFAIRHFENKFAVETLICNFVSTDYYTFAC displayed an amyloid nucleation score of 6.82.

EASNCFAIRHFENKFAVETLICNFVYSSSICCGL registered an amyloid nucleation score of 6.07.

The sequence EASNCFAIRHFENKFAVETLICNGCCSGTHISKL registered an amyloid nucleation score of 7.49.

EASNCFAIRHFENKFAVETLICNGECHPRNALFG showed an amyloid nucleation score of -0.191.

As for EASNCFAIRHFENKFAVETLICNGEVSQRNCPVS, the amyloid nucleation score worked out at 5.64.

As to EASNCFAIRHFENKFAVETLICNGFRKSSRILRG, the amyloid nucleation score result was “inactive”.

With EASNCFAIRHFENKFAVETLICNGFVDRSTVMFV, the amyloid nucleation score was 0.

Take EASNCFAIRHFENKFAVETLICNGGRLYKDPVLV: the amyloid nucleation score entry was “inactive”.

In turn, EASNCFAIRHFENKFAVETLICNGHCWVYLCKVC gave an amyloid nucleation score of -0.122.

EASNCFAIRHFENKFAVETLICNGISVNWCSYCS yielded an amyloid nucleation score of 7.8.

Regarding EASNCFAIRHFENKFAVETLICNGKPYRVGRDS, the amyloid nucleation score entry is “inactive”.

As to EASNCFAIRHFENKFAVETLICNGLRGARSDVGL, the amyloid nucleation score is -0.247.

The sequence EASNCFAIRHFENKFAVETLICNGRARN came in with an amyloid nucleation score of 0.494.

Still in this data set, the particulars now being: random library (experiment): 3.
On to EASNCFAIRHFENKFAVETLICNCTKSVYLSTAS, for which the amyloid nucleation score entry is “inactive”.

Sequence EASNCFAIRHFENKFAVETLICNCVSVEVIRYLR showed an amyloid nucleation score of 6.99.

As for EASNCFAIRHFENKFAVETLICNCWQPELLYWYG, the amyloid nucleation score came out at 6.61.

Regarding EASNCFAIRHFENKFAVETLICNDARR, the amyloid nucleation score entry was “inactive”.

As to EASNCFAIRHFENKFAVETLICNDGLC, the amyloid nucleation score was -0.334.

Regarding EASNCFAIRHFENKFAVETLICNDL, the amyloid nucleation score entry is “inactive”.

With EASNCFAIRHFENKFAVETLICNDWVW, the amyloid nucleation score entry was “inactive”.

In the case of EASNCFAIRHFENKFAVETLICNER, the amyloid nucleation score result is “inactive”.

Regarding EASNCFAIRHFENKFAVETLICNERWRVHVNTMR, the amyloid nucleation score is 4.14.

With EASNCFAIRHFENKFAVETLICNESESS, the amyloid nucleation score result was “inactive”.

Sequence EASNCFAIRHFENKFAVETLICNFETFVFENRML yielded an amyloid nucleation score of 4.56.

The sequence EASNCFAIRHFENKFAVETLICNFSDLNMYAFCR registered an amyloid nucleation score of 7.81.

With EASNCFAIRHFENKFAVETLICNGDGNKQMRANA, the amyloid nucleation score entry was “inactive”.

Regarding EASNCFAIRHFENKFAVETLICNGHRDARTLVWE, the amyloid nucleation score entry was “inactive”.

For the sequence EASNCFAIRHFENKFAVETLICNGKMYPCFDIVS, the amyloid nucleation score entry is “inactive”.

As to EASNCFAIRHFENKFAVETLICNGKSLWGEMWLK, the amyloid nucleation score result is “inactive”.

Take EASNCFAIRHFENKFAVETLICNGLASLVTLMEC: the amyloid nucleation score result is “inactive”.

On to EASNCFAIRHFENKFAVETLICNGNAYLIRATCT, for which the amyloid nucleation score result was “inactive”.

These data come from the supplement of paper PMC12067230.
